# Some of the results follow.
# B1: Factor H (Homo sapiens), P08603 (protein)
# chain: MRLLAKIICLMLWAICVAEDCNELPPRRNTEILTGSWSDQTYPEGTQAIYKCRPGYRSLGNVIMVCRKGEWVALNPLRKCQKRPCGHPGDTPFGTFTLTGGNVFEYGVKAVYTCNEGYQLLGEINYRECDTDGWTNDIPICEVVKCLPVTAPENGKIVSSAMEPDREYHFGQAVRFVCNSGYKIEGDEEMHCSDDGFWSKEKPKCVEISCKSPDVINGSPISQKIIYKENERFQYKCNMGYEYSERGDAVCTESGWRPLPSCEEKSCDNPYIPNGDYSPLRIKHRTGDEITYQCRNGFYPATRGNTAKCTSTGWIPAPRCTLKPCDYPDIKHGGLYHENMRRPYFPVAVGKYYSYYCDEHFETPSGSYWDHIHCTQDGWSPAVPCLRKCYFPYLENGYNQNYGRKFVQGKSIDVACHPGYALPKAQTTVTCMENGWSPTPRCIRVKTCSKSSIDIENGFISESQYTYALKEKAKYQCKLGYVTADGETSGSITCGKDGWSAQPTCIKSCDIPVFMNARTKNDFTWFKLNDTLDYECHDGYESNTGSTTGSIVCGYNGWSDLPICYERECELPKIDVHLVPDRKKDQYKVGEVLKFSCKPGFTIVGPNSVQCYHFGLSPDLPICKEQVQSCGPPPELLNGNVKEKTKEEYGHSEVVEYYCNPRFLMKGPNKIQCVDGEWTTLPVCIVEESTCGDIPELEHGWAQLSSPPYYYGDSVEFNCSESFTMIGHRSITCIHGVWTQLPQCVAIDKLKKCKSSNLIILEEHLKNKKEFDHNSNIRYRCRGKEGWIHTVCINGRWDPEVNCSMAQIQLCPPPPQIPNSHNMTTTLNYRDGEKVSVLCQENYLIQEGEEITCKDGRWQSIPLCVEKIPCSQPPQIEHGTINSSRSSQESYAHGTKLSYTCEGGFRISEENETTCYMGKWSSPPQCEGLPCKSPPEISHGVVAHMSDSYQYGEEVTYKCFEGFGIDGPAIAKCLGEKWSHPPSCIKTDCLSLPSFENAIPMGEKKDVYKAGEQVTYTCATYYKMDGASNVTCINSRWTGRPTCRDTSCVNPPTVQNAYIVSRQMSKYPSGERVRYQCRSPYEMFGDEEVMCLNGNWTEPPQCKDSTGKCGPPPPIDNGDITSFPLSVYAPASSVEYQCQNLYQLEGNKRITCRNGQWSEPPKCLHPCVISREIMENYNIALRWTAKQKLYSRTGESVEFVCKRGYRLSSRSHTLRTTCWDGKLEYPTCAKR
# Tests used:
# Experiment in all cases: glycan array binding signal (z-score within array); higher = stronger binding
# Conditions in all cases: glycan notation: IUPAC condensed, linker removed
# [1] = molecular target: Gal(b1-2)Gal
# In short: (§1)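 The Consortium for Functional Glycomics database supplied 3228 glycan arrays, of which those lacking an available protein sequence were dropped. The binding signal, a within-array Z-score, was averaged across arrays of the same protein sequence and across linkers. Negative scores can be read as non-binding.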
# [2] = molecular target: Gal(b1-3)Gal
# In short: as §1
# [3] = molecular target: Gal(b1-3)Gal(b1-4)GlcNAc
# In short: as §1
# [4] = molecular target: Gal(b1-3)GalNAc
# In short: as §1
# [5] = molecular target: Gal(b1-3)GalNAc(b1-3)Gal(a1-4)Gal(b1-4)Glc
# In short: as §1
# [6] = molecular target: Gal(b1-3)GalNAc(b1-4)Gal(b1-4)Glc
# In short: as §1
# [7] = molecular target: Gal(b1-3)GalNAc(b1-4)[Neu5Ac(a2-3)]Gal(b1-4)Glc
# In short: as §1
# [8] = molecular target: Gal(b1-3)GlcNAc
# In short: as §1
# [9] = molecular target: Gal(b1-3)GlcNAc(b1-2)Man(a1-3)[Gal(b1-3)GlcNAc(b1-2)Man(a1-6)]Man(b1-4)GlcNAc(b1-4)GlcNAc
# In short: as §1
# [10] = molecular target: Gal(b1-3)GlcNAc(b1-3)Gal(b1-3)GlcNAc
# In short: as §1
# [11] = molecular target: Gal(b1-3)GlcNAc(b1-3)Gal(b1-4)Glc
# In short: as §1
# [12] = molecular target: Gal(b1-3)GlcNAc(b1-3)Gal(b1-4)GlcNAc
# In short: as §1
# [13] = molecular target: Gal(b1-3)[Fuc(a1-4)]GlcNAc
# In short: as §1
# [14] = molecular target: Gal(b1-3)[Fuc(a1-4)]GlcNAc(b1-3)Gal(b1-3)[Fuc(a1-4)]GlcNAc
# In short: as §1
# [15] = molecular target: Gal(b1-3)[Fuc(a1-4)]GlcNAc(b1-3)Gal(b1-4)GlcNAc
# In short: as §1
# [16] = molecular target: Gal(b1-3)[Fuc(a1-4)]GlcNAc(b1-3)Gal(b1-4)[Fuc(a1-3)]GlcNAc
# In short: as §1
# [17] = molecular target: Gal(b1-3)[GlcNAc(b1-6)]GalNAc
# In short: as §1
# [18] = molecular target: Gal(b1-3)[Neu5Ac(a2-6)]GalNAc
# In short: as §1
# [19] = molecular target: Gal(b1-3)[Neu5Ac(a2-6)]GlcNAc(b1-6)Gal(b1-4)Glc
# In short: as §1
# [20] = molecular target: Gal(b1-3)[Neu5Ac(b2-6)]GalNAc
# In short: as §1
# [21] = molecular target: Gal(b1-4)GalNAc(a1-3)[Fuc(a1-2)]Gal(b1-4)GlcNAc
# In short: as §1
# [22] = molecular target: Gal(b1-4)GalNAc(b1-3)[Fuc(a1-2)]Gal(b1-4)GlcNAc
# In short: as §1
# [23] = molecular target: Gal(b1-4)Glc
# In short: as §1
# [24] = molecular target: Gal(b1-4)Glc6S
# In short: as §1
# [25] = molecular target: Gal(b1-4)GlcNAc
# In short: as §1
# [26] = molecular target: Gal(b1-4)GlcNAc(a1-6)Gal(b1-4)GlcNAc
# In short: as §1
# [27] = molecular target: Gal(b1-4)GlcNAc(b1-2)Man(a1-3)[Gal(b1-4)GlcNAc(b1-2)Man(a1-6)]Man(b1-4)GlcNAc(b1-4)GlcNAc
# In short: as §1
# [28] = molecular target: Gal(b1-4)GlcNAc(b1-3)Gal(b1-3)GlcNAc
# In short: as §1
# [29] = molecular target: Gal(b1-4)GlcNAc(b1-3)Gal(b1-4)Glc
# In short: as §1
# [30] = molecular target: Gal(b1-4)GlcNAc(b1-3)Gal(b1-4)GlcNAc
# In short: as §1
# [31] = molecular target: Gal(b1-4)GlcNAc(b1-3)Gal(b1-4)GlcNAc(b1-3)Gal(b1-4)GlcNAc
# In short: as §1
# [32] = molecular target: Gal(b1-4)GlcNAc(b1-3)Gal(b1-4)[Fuc(a1-3)]GlcNAc(b1-3)Gal(b1-4)[Fuc(a1-3)]GlcNAc
# In short: as §1
# [33] = molecular target: Gal(b1-4)GlcNAc(b1-3)GalNAc
# In short: as §1
# [34] = molecular target: Gal(b1-4)GlcNAc(b1-3)[Gal(b1-4)GlcNAc(b1-6)]Gal(b1-4)GlcNAc
# In short: as §1
# [35] = molecular target: Gal(b1-4)GlcNAc(b1-3)[GlcNAc(b1-6)]Gal(b1-4)GlcNAc
# In short: as §1
# [36] = molecular target: Gal(b1-4)GlcNAc(b1-6)Gal(b1-4)GlcNAc
# In short: as §1
# [37] = molecular target: Gal(b1-4)GlcNAc(b1-6)Gal(b1-4)GlcNAc(b1-6)GalNAc
# In short: as §1
# [38] = molecular target: Gal(b1-4)GlcNAc(b1-6)GalNAc
# In short: as §1
# [39] = molecular target: Gal(b1-4)GlcNAc(b1-6)[Gal(b1-3)]GalNAc
# In short: as §1
# [40] = molecular target: Gal3S(b1-3)GalNAc
# In short: as §1
# [41] = molecular target: Gal3S(b1-3)GlcNAc
# In short: as §1
# [42] = molecular target: Gal3S(b1-3)[Fuc(a1-4)]GlcNAc
# In short: as §1
# [43] = molecular target: Gal3S(b1-4)Glc
# In short: as §1
# [44] = molecular target: Gal3S(b1-4)Glc6S
# In short: as §1
# [45] = molecular target: Gal3S(b1-4)GlcNAc
# In short: as §1
binder,measurement,setting,value
B1,glycan array binding signal (z-score),[1],-0.341
same,glycan array binding signal (z-score),[2],0.204
same,glycan array binding signal (z-score),[3],-0.076
same,glycan array binding signal (z-score),[4],-0.343
same,glycan array binding signal (z-score),[5],-0.456
same,glycan array binding signal (z-score),[6],0.224
same,glycan array binding signal (z-score),[7],-0.086
same,glycan array binding signal (z-score),[8],0.497
same,glycan array binding signal (z-score),[9],-0.48
same,glycan array binding signal (z-score),[10],1.31
same,glycan array binding signal (z-score),[11],0.192
same,glycan array binding signal (z-score),[12],-0.154
same,glycan array binding signal (z-score),[13],0.373
same,glycan array binding signal (z-score),[14],-0.459
same,glycan array binding signal (z-score),[15],0.011
same,glycan array binding signal (z-score),[16],-0.617
same,glycan array binding signal (z-score),[17],-0.403
same,glycan array binding signal (z-score),[18],-0.315
same,glycan array binding signal (z-score),[19],-0.265
same,glycan array binding signal (z-score),[20],-0.367
same,glycan array binding signal (z-score),[21],-0.392
same,glycan array binding signal (z-score),[22],1.06
same,glycan array binding signal (z-score),[23],-0.481
same,glycan array binding signal (z-score),[24],-0.221
same,glycan array binding signal (z-score),[25],-0.161
same,glycan array binding signal (z-score),[26],-0.37
same,glycan array binding signal (z-score),[27],-0.677
same,glycan array binding signal (z-score),[28],-0.455
same,glycan array binding signal (z-score),[29],-0.248
same,glycan array binding signal (z-score),[30],0.317
same,glycan array binding signal (z-score),[31],-0.576
same,glycan array binding signal (z-score),[32],-0.383
same,glycan array binding signal (z-score),[33],-0.538
same,glycan array binding signal (z-score),[34],-0.173
same,glycan array binding signal (z-score),[35],-0.625
same,glycan array binding signal (z-score),[36],-0.316
same,glycan array binding signal (z-score),[37],-0.599
same,glycan array binding signal (z-score),[38],-0.336
same,glycan array binding signal (z-score),[39],-0.537
same,glycan array binding signal (z-score),[40],0.19
same,glycan array binding signal (z-score),[41],1.36
same,glycan array binding signal (z-score),[42],0.776
same,glycan array binding signal (z-score),[43],1.64
same,glycan array binding signal (z-score),[44],0.397
same,glycan array binding signal (z-score),[45],0.133
